Data: the supplement of paper PMC10600219
Counter-ions that a name gives are not always drawn. In all, about 2,800 compounds were measured (“cell viability relative to vehicle”: median about 0.98, lowest 2% from about 0.45 on). Some of the results follow.

system: NCI-H2228 alectinib-DTP; assay: cell viability relative to vehicle (fraction of vehicle); NCI-H2228 is an ALK-positive lung cancer line and DTP means drug-tolerant persister; higher = less growth inhibition; conditions: 100 nM; treatment time 6 days
Outline: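 Each value is viability relative to vehicle-treated cells, measured as ATP with the CellTiter-Glo 3D Cell Viability Assay. Parental NCI-H2228 cells and drug-tolerant persisters (1000 nM targeted drug, 13 days) in 384-well plates received the 3114-agent TargetMol anti-cancer compound library at 100 nM, or DMSO, and were read 6 days later.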

SMILES	cell viability
COc1ccc(C[C@H](NC(=O)[C@H](C)NC(=O)CN2CCOCC2)C(=O)N[C@@H](Cc2ccccc2)C(=O)C2(C)CO2)cc1 (stereo in doubt)	1.03
CCN(CC)C(=O)Cc1csc(NS(=O)(=O)c2cccc(Cl)c2C)n1	0.987
CC1(C)CCC[C@](C)([C@H]2CC[C@]3(C)[C@@H]2[C@H](O)C[C@@H]2[C@@]4(C)CC[C@H](O)C(C)(C)[C@@H]4CC[C@]23C)O1 [Panaxadiol]	0.909
COc1cc(OC)c(/C=C/S(=O)(=O)Cc2ccc(OC)c(OP(=O)(O)O)c2)c(OC)c1 [Briciclib]	0.554
COc1ccc(COc2ccc(Cc3cnc(N)nc3N)cc2OC)cc1	1
CCNC(=O)c1cc2c(-c3cc(C(C)(C)O)ccc3Oc3c(C)cc(F)cc3C)cn(C)c(=O)c2[nH]1	0.855
Cc1cc([N+](=O)[O-])ccc1NS(=O)(=O)c1cc(Cl)ccc1Cl	0.953
CC(C)(C)[Si](C)(C)Oc1ccc2oc(=O)c3c(c2c1)CCCN3	0.959
COc1ccc2[nH]cc(CCNC(C)=O)c2c1 [Melatonine]	1.04
O=C([O-])c1ccccc1O.[Na+] [Sodium salicylate]	1.02
C=CC[C@@H]1/C=C(\C)C[C@H](C)C[C@H](OC)[C@H]2O[C@@](O)(C(=O)C(=O)N3CCCC[C@H]3C(=O)O[C@H](/C(C)=C/[C@@H]3CC[C@@H](O)[C@H](OC)C3)[C@H](C)[C@@H](O)CC1=O)[C@H](C)C[C@@H]2OC [Tacrolimus]	0.731
CC(C)=CCc1cc(-c2coc3cc(O)ccc3c2=O)ccc1O [Neobavaisoflavone]	1.22
CC(C)N1CCN(c2ccc(OCC3COC(Cn4cncn4)(c4ccc(Cl)cc4Cl)O3)cc2)CC1 (stereo not given) [Terconazole]	1.04
CN1C2CCCC1CC(NC(=O)c1nn(C)c3ccccc13)C2 (stereo not given) [Granisetron hydrochloride]	1.05
O=S(=O)(CCC(F)=C(F)F)c1ncc(Cl)s1 [Fluensulfone]	0.998
COc1cc2c(cc1OC)[C@@H](Cc1ccc(O)c(Oc3cc4c(cc3OC)CCN(C)[C@@H]4Cc3ccc(O)cc3)c1)N(C)CC2 [Liensinine]	1.08
CC(=O)O/N=C1\C(=O)N(Cc2cc(Cl)ccc2Cl)c2ccc(Cl)cc21	1.14
CCN(CC)CC#CCOC(=O)C(O)(c1ccccc1)C1CCCCC1 (stereo not given) [Oxybutynin hydrochloride]	1.1
O=C(Cc1cccc(OC(F)(F)F)c1)Nc1ccc(CCCCc2nnc(NC(=O)Cc3ccccn3)s2)nn1	0.819
Cc1ncc([N+](=O)[O-])n1CCO [Metronidazole]	1.08
CNC(=O)Nc1cc(Oc2cncc(C)c2)c(-c2ccc(OCC(C)(C)O)nc2)cn1	0.91
Cc1nc(Nc2ccc(F)cc2)nc(N2CCc3ccccc3C2C)c1C (stereo not given) [Revaprazan hydrochloride]	0.852
CCN(Cc1ccncc1)C(=O)C(CO)c1ccccc1 (stereo not given) [Tropicamide]	1.03
CC(C)=CCc1c(O)cc2oc3cc(O)c(O)c(CC=C(C)C)c3c(=O)c2c1O [gamma-Mangostin]	0.878

SMILES	cell viability
C[C@H]1O[C@@H](O[C@H]2CC[C@@]3(C)[C@@H](CC[C@]4(C)[C@@H]3C=C[C@]35OC[C@@]6(CCC(C)(C)C[C@H]63)[C@@H](O)C[C@]54C)[C@]2(C)CO)[C@H](O)[C@@H](O[C@@H]2O[C@H](CO)[C@@H](O)[C@H](O)[C@H]2O)[C@H]1O [Saikosaponin A]	0.961
C[C@@H]1C(=O)O[C@H](C)[C@H]1C[C@@H](O)[C@](C)(O)[C@H]1CC[C@@]2(O)C3=CC(=O)[C@@H]4C[C@@H](O)[C@@H](O)C[C@]4(C)[C@H]3CC[C@]12C [Cyasterone]	0.907
C[C@@]1(CO)C[C@@H](O)C[C@@]2(C)[C@@H]3CC[C@](C)([C@@H](O)CO)C=C3CC[C@H]12 [Kirenol]	1.16
CCCCc1nc2ccc(NC(=O)NC3CCCCC3)cc2n1Cc1ccc(-c2ccccc2C(=O)O)cc1	1.16
CO[C@@H]1[C@@H](OC(N)=O)[C@@H](O)[C@H](Oc2ccc3c(O)c(NC(=O)c4ccc(O)c(CC=C(C)C)c4)c(=O)oc3c2C)OC1(C)C [Novobiocin Sodium]	1.18
CN(NC(=O)CC(=O)NN(C)C(=S)c1ccccc1)C(=S)c1ccccc1 [Elesclomol]	0.8
O=C(O[C@H]1CN2CCC1CC2)N1CCc2ccccc2[C@@H]1c1ccccc1 [Solifenacin succinate]	0.949
NC(=O)N/N=C/c1ccc([N+](=O)[O-])o1 [Furacilin]	1.14
O=S(=O)(c1ccccc1)c1cnc2c(N3CCNCC3)cccc2c1	0.902
COc1ccc(C2(CNC(=O)c3ccc(NC(=O)c4ccco4)cc3)CCOCC2)cc1	0.919
CC(C)C[C@H](NC(=O)[C@H](CCc1ccccc1)NC(=O)CN1CCOCC1)C(=O)N[C@@H](Cc1ccccc1)C(=O)N[C@@H](CC(C)C)C(=O)[C@@]1(C)CO1 [Carfilzomib]	0.116
COc1cc(OC)c(C=C2C(=O)Nc3ccccc32)c(OC)c1	0.882
CN1CCCC(n2nc(Cc3ccc(Cl)cc3)c3ccccc3c2=O)CC1 (stereo not given) [Azelastine hydrochloride]	1.03
COC(=O)C1=CO[C@@H](O[C@@H]2O[C@H](CO)[C@@H](O)[C@H](O)[C@H]2O)[C@@H]2[C@@H](C)[C@@H](O)C[C@H]12 [Loganin]	1.02
N[C@H]1C(O)O[C@H](CO)[C@@H](O)[C@@H]1O (stereo not given in full) [Glucosamine]	1.16
COC1=CC(c2cc3ccccc3[nH]2)=N/C1=C\c1[nH]c(C)cc1C [Obatoclax Mesylate]	0.904
CC(C)C[C@@H](C=O)NC(=O)[C@H](CC(C)C)NC(=O)[C@H](CC(C)C)NC(=O)OCc1ccccc1	0.489
CC(C)(C#N)c1ccc(N2C(=O)OCc3cnc4ccc(-c5cnc6ccccc6c5)cc4c32)cc1	0.925
CCN(CC)Cc1ccc2cc(COC(=O)Nc3ccc(C(=O)NO)cc3)ccc2c1 [Givinostat hydrochloride monohydrate]	0.963
CC(=O)Oc1cccc2c1C(=O)c1c(OC(C)=O)cc(C(=O)O)cc1C2=O [Diacerein]	1.05
CCOC(=O)c1ccc(OCCC2CCN(c3ccc(C)nn3)CC2)cc1 [Pirodavir]	0.959
O=C(Nc1ncc([N+](=O)[O-])s1)c1ccccc1O [Tizoxanide]	0.88
N=C(N)NC(=N)N1CCOCC1 [Moroxydine hydrochloride]	0.951
Nc1ccc(C(=O)NCC(=O)O)cc1 [4-Aminohippuric Acid]	0.954

SMILES	cell viability
C[C@H](NC(=O)CCC(F)(F)F)C(=O)N[C@@H]1C(=O)N(CCO)c2ncccc2-c2ccccc21 [Crenigacestat]	0.963
Fc1ccc(-c2nc3n(c2-c2ccncc2)CCS3)cc1	0.953
O=c1c(-c2ccc(O)cc2)coc2cc(O[C@@H]3O[C@H](CO)[C@@H](O)[C@H](O)[C@H]3O)cc(O)c12 [Genistin]	1.07
Cn1ncc(Cl)c1-c1cc(C(=O)N[C@H](CN)Cc2ccc(F)c(F)c2)oc1Cl [Uprosertib]	0.752
CCCCNNC(=O)c1ccc(Br)cc1	0.962
CN(C)CCc1c[nH]c2ccc(Cn3cncn3)cc12 [Rizatriptan benzoate]	0.824
COc1ccc(C[C@@H]2c3cc(Oc4cc(C[C@@H]5c6cc(O)c(OC)cc6CCN5C)ccc4O)c(OC)cc3CCN2C)cc1 [Isoliensinine]	1
OCCN1CCN(CCCN2c3ccccc3Sc3ccc(Cl)cc32)CC1 [Perphenazine]	1.05
OC[C@H]1O[C@@H](Oc2ccc(O)cc2)[C@H](O)[C@@H](O)[C@@H]1O [Arbutin]	1.04
O=C(c1ccc(C(=O)N2CCC(N3CCCC3)CC2)c(Nc2ccccc2)c1)N1CCC(N2CCCC2)CC1	1
N#CCC1(n2cc(-c3ncnc4[nH]ccc34)cn2)CN(C2CCN(C(=O)c3ccnc(C(F)(F)F)c3F)CC2)C1 [Itacitinib]	1.07
COc1cc2c3cc1Oc1c(OC)c(OC)cc4c1[C@@H](Cc1ccc(O)c(c1)Oc1ccc(cc1)C[C@@H]3N(C)CC2)N(C)CC4 [Berbamine]	1.09
CCOC(=O)Nc1cc(-c2ccc(C)c(NS(C)(=O)=O)c2)nn2c(C)nnc12 [Bromosporine]	0.922
Cc1cc2c(F)c(Oc3ncnn4cc(OC[C@@H](C)OC(=O)[C@H](C)N)c(C)c34)ccc2[nH]1 [Brivanib Alaninate]	0.933
O=c1[nH]c(=O)n(C2CCCO2)cc1F (stereo not given) [Tegafur]	0.871
C[C@@H]1CCN(C(=O)CC#N)C[C@@H]1N(C)c1ncnc2[nH]ccc12 [Tofacitinib]	0.854
Cc1c(N(C)CS(=O)(=O)O)c(=O)n(-c2ccccc2)n1C [Analgin]	1.03
CCCCNNC(=O)c1ccc(-c2cccc(F)c2F)cc1	1.05
COC(=O)C1=CC[C@@]23CC[C@@H]([C@@](C)(/C=C/C=C(\C)C(=O)O)OC2=O)[C@@]3(OC(C)=O)CC1 [Pseudolaric Acid B]	0.988
CN1C(=O)C(C)(C)Oc2c(-c3cn(C)c(=O)c4[nH]ccc34)cc(S(C)(=O)=O)cc21	0.84
CCc1cn([C@H]2C[C@H](O)[C@@H](CO)O2)c(=O)[nH]c1=O [Edoxudine]	1.01
CO[C@]1(CC[C@@H](C)CO[C@@H]2O[C@H](CO)[C@@H](O)[C@H](O)[C@H]2O)O[C@H]2C[C@H]3[C@@H]4CC=C5C[C@@H](O[C@@H]6O[C@H](CO)[C@@H](O[C@@H]7O[C@@H](C)[C@H](O)[C@@H](O)[C@H]7O)[C@H](O)[C@H]6O[C@@H]6O[C@@H](C)[C@H](O)[C@@H](O)[C@H]6O)CC[C@]5(C)[C@H]4CC[C@]3(C)[C@H]2[C@@H]1C [Methyl protodioscin]	1.02
